Results as given in the supplement of paper PMC10126150.
Sequences with one replicate were seen in a single cluster, so their values are uncertain.

test system: ATP; assay: switch fluorescence ratio, 500 uM ATP over buffer (Cy3 cluster intensity, sum of 5 cycles each) (fold (ratio)); higher = stronger signal-on switching upon ATP binding; sequences stand for … in TCGTCGGCAGCGTCAGATGTGTATAAGAGACAGTTTTTTTTTTTTTTTTTTTTTTTTT…TC; settings: aptamer strand: ATP DNA aptamer (quencher-CACCTGGGGGAGTATTGCGGAGGAAGG + anchor), 100 nM annealed; ATP concentration: 500 uM; one replicate
Outline: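 Cy3-labelled switching-strand clusters on a modified Illumina MiSeq flow-cell were annealed to 100 nM quencher-labelled ATP aptamer, imaged in selection buffer, then imaged after 15 min with 500 uM ATP at 22 °C. Five buffer/ATP cycles ran, with NaOH stripping and re-annealing between them. The fluorescence ratio is summed target-cycle over summed buffer-cycle Cy3 intensity per cluster, averaged per switch-domain sequence. Clusters outside 100-1000 RFU were excluded.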
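Note: ATP exposure 15 min at 22 °C before imaging.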

Row | Sequence | switch fluorescence ratio
1 | AGGTGGGAGA | 0.999
2 | AGGTGGGAGC | 0.94
3 | AGGTGGGGTA | 0.969
4 | AGGTGGGTGA | 1
5 | AGGTGGGTGC | 0.965
6 | AGGTGGTATG | 0.958
7 | AGGTGTACAC | 1.01
8 | AGGTGTTCT | 0.997
9 | AGGTGTTTCC | 1.02
10 | AGGTTAACTT | 0.99
11 | AGGTTACAGA | 1.02
12 | AGGTTAGCCG | 1.14
13 | AGGTTCGGGG | 1.01
14 | AGGTTGAGCG | 1
15 | AGGTTGCCGT | 1.03
16 | AGGTTGGAAG | 0.983
17 | AGGTTGTGGA | 0.976
18 | AGGTTTGATA | 0.998
19 | AGGTTTTAAA | 0.984
20 | AGGTTTTAAT | 1
21 | AGTAAACAGT | 1.02
22 | AGTAAACCGC | 1.26
23 | AGTAACATAA | 1.01
24 | AGTAACTATT | 1.07
25 | AGTAAGTAGC | 0.962
26 | AGTAAGTCTC | 0.974

Row | Sequence | switch fluorescence ratio
27 | AGTAATGGCT | 0.95
28 | AGTACACTAT | 1.04
29 | AGTACATC | 1.03
30 | AGTACATTGG | 1
31 | AGTACGCTGG | 0.948
32 | AGTACGGCCG | 0.942
33 | AGTACTAGTA | 0.992
34 | AGTAGAAAGA | 0.976
35 | AGTAGCTAAT | 1.02
36 | AGTAGGCATG | 0.906
37 | AGTAGGGAAG | 0.98
38 | AGTAGTAAAA | 1.05
39 | AGTATAGCAG | 1.03
40 | AGTATCAAAT | 1.01
41 | AGTATCACG | 0.999
42 | AGTATCAGGG | 0.967
43 | AGTATCGACT | 0.977
44 | AGTATGCGCA | 1.03
45 | AGTATTTCTC | 0.989
46 | AGTCAAAAAC | 0.983
47 | AGTCAACCG | 1.04
48 | AGTCACAAG | 1.02
49 | AGTCACAGAG | 1.02
50 | AGTCACATTC | 1.03
51 | AGTCACGTCG | 0.953
52 | AGTCAGCAGG | 1.06

Row | Sequence | switch fluorescence ratio
53 | AGTCAGGGCT | 0.971
54 | AGTCAGGTTA | 0.995
55 | AGTCATATGG | 0.987
56 | AGTCATGGTC | 1.02
57 | AGTCCATTCC | 1.4
58 | AGTCCCCTTT | 1.04
59 | AGTCCGCCCA | 1.41
60 | AGTCGGATCG | 0.974
61 | AGTCGTGACT | 1.01
62 | AGTCTAATAC | 1.91
63 | AGTCTAGAAC | 1.01
64 | AGTCTATTAA | 0.983
65 | AGTCTCGCCT | 0.986
66 | AGTCTCTACA | 1.01
67 | AGTCTGAGCA | 0.958
68 | AGTCTGCATC | 1.48
69 | AGTCTGGTT | 1.02
70 | AGTCTGTGCC | 1
71 | AGTCTGTGTT | 0.942
72 | AGTGAAAACG | 1.04
73 | AGTGAAAAT | 0.995
74 | AGTGAACAT | 0.999
75 | AGTGAACTGG | 1.03
76 | AGTGAAGGGT | 0.998
77 | AGTGACTCGG | 1.01
78 | AGTGACTCT | 0.985

Row | Sequence | switch fluorescence ratio
79 | AGTGATACCG | 1.02
80 | AGTGATCGTC | 0.931
81 | AGTGATGCTG | 1.03
82 | AGTGCAATTA | 1.08
83 | AGTGCATGGT | 0.993
84 | AGTGCCGCTT | 1.03
85 | AGTGGAAAAC | 1.25
86 | AGTGGACGGT | 0.969
87 | AGTGGAGGTC | 1.05
88 | AGTGGATTCG | 1.02
89 | AGTGGCAGCT | 0.965
90 | AGTGGCGGAG | 1.04
91 | AGTGGCTGGC | 1.01
92 | AGTGGGGAAA | 0.995
93 | AGTGGGGTCG | 0.967
94 | AGTGGGGTGA | 0.995
95 | AGTGGTAGGA | 0.997
96 | AGTGGTATCG | 0.966
97 | AGTGGTTCTC | 0.988
98 | AGTGTAGCTG | 1
99 | AGTGTAGTAT | 0.985
100 | AGTGTATGAT | 0.991
101 | AGTGTCAAC | 0.966
102 | AGTGTGGAG | 1.05
103 | AGTGTTACCT | 1.1
104 | AGTGTTCTGA | 0.972

Row | Sequence | switch fluorescence ratio
105 | AGTGTTGTC | 0.994
106 | AGTGTTGTTT | 0.989
107 | AGTGTTTAGA | 1.02
108 | AGTGTTTGGG | 0.971
109 | AGTTAAGAC | 1.08
110 | AGTTAGAAA | 0.973
111 | AGTTAGCGTT | 0.964
112 | AGTTAGGGCC | 1.05
113 | AGTTATGAGG | 0.984
114 | AGTTATGCTT | 1.01
115 | AGTTATTTTG | 1
116 | AGTTCGACAC | 1.02
117 | AGTTCGATGG | 0.976
118 | AGTTCGGACG | 1.02
119 | AGTTCGGCAC | 1.03
120 | AGTTGAAATC | 0.986
121 | AGTTGCGACT | 1
122 | AGTTGCGATA | 0.986
123 | AGTTGCGCG | 0.978
124 | AGTTGCTATG | 1.03
125 | AGTTGGATCG | 1.01
126 | AGTTGGCGCA | 1.01
127 | AGTTGGGTCC | 0.987
128 | AGTTGTCCAG | 0.972
129 | AGTTGTGCGG | 1.02
130 | AGTTTAATG | 0.99

Row | Sequence | switch fluorescence ratio
131 | AGTTTATTAA | 0.992
132 | AGTTTC | 0.966
133 | AGTTTCATAG | 1.01
134 | AGTTTCGAGC | 1.02
135 | AGTTTCGCAT | 1.1
136 | AGTTTCGCCG | 1.06
137 | AGTTTCGTAA | 1.03
138 | AGTTTCTATG | 1.04
139 | AGTTTGCATC | 0.991
140 | AGTTTTCATA | 0.973
141 | ATAAAAACAC | 1.01
142 | ATAAAAAGCG | 1.02
143 | ATAAACAAGG | 1.02
144 | ATAAACGAAG | 0.992
145 | ATAAACGGTC | 1.03
146 | ATAAACGTAC | 1.7
147 | ATAAACGTGC | 1.12
148 | ATAAACTAGC | 1.07
149 | ATAAACTTAG | 1.05
150 | ATAAAGCATG | 1
151 | ATAAAGCGG | 0.996
152 | ATAAAGTAAC | 1.02
153 | ATAAATAGTT | 0.998
154 | ATAACAATTG | 0.971
155 | ATAACACAGC | 1.06
156 | ATAACACATA | 1.03

Row | Sequence | switch fluorescence ratio
157 | ATAACATGG | 0.986
158 | ATAACCGCAT | 2.2
159 | ATAACCGCGC | 2.44
160 | ATAACCTCAG | 1.07
161 | ATAACGAGAC | 1.69
162 | ATAACGAGAG | 1.01
163 | ATAACGCTA | 1.16
164 | ATAACTCCTG | 0.984
165 | ATAAGAACAC | 1.44
166 | ATAAGAGTTT | 0.985
167 | ATAAGCTGGG | 1.06
168 | ATAAGGGA | 1.02
169 | ATAAGGTGCC | 1.03
170 | ATAAGTCTAC | 1.04
171 | ATAAGTGAGG | 0.973
172 | ATAAGTGGCC | 1.03
173 | ATAATCATAT | 1.01
174 | ATAATCCCTG | 1.06
175 | ATAATCGGTA | 0.95
176 | ATAATCTGC | 1
177 | ATAATCTTTG | 0.999
178 | ATAATG | 0.973
179 | ATAATGTGT | 0.963
180 | ATAATGTTGA | 1
181 | ATAATTGAAC | 1.26
182 | ATACAAGGTC | 1.06

Row | Sequence | switch fluorescence ratio
183 | ATACAGTGCG | 1.02
184 | ATACATAGTT | 1.04
185 | ATACCACATG | 1.05
186 | ATACCATACG | 1.46
187 | ATACCCTTGG | 0.982
188 | ATACCGATGA | 1.04
189 | ATACCGATTA | 1.02
190 | ATACCGGGGT | 0.98
191 | ATACCTGCAA | 1.95
192 | ATACCTGCGA | 1.09
193 | ATACGAAAAC | 1.09
194 | ATACGATCG | 1.03
195 | ATACGCATAA | 2.84
196 | ATACGGAGT | 1.01
197 | ATACGGATTC | 1.03
198 | ATACGGCTAG | 1.06
199 | ATACGTGAT | 1.11
200 | ATACGTTCAA | 1.13
201 | ATACGTTGGT | 0.977
